# Reference: PubChem BioAssay (NCATS)
# The other results are listed elsewhere or left out. These are further read-outs of the screen, such as a control signal, another cell line or another target. No call is given for them. For part of these data: Compounds called inactive in the main read-out are mostly missing here. The note in brackets gives the kind of curve behind each potency; many fits are weak.
# What was measured:
# [1] = qHTS drug screen for cell cycle checkpoint inhibitors in PARPi-resistant BRCA-mutant ovarian cancer cell lines. (AID 1963452); conditions: PEO1/OlaR viability, CellTiter-Glo luminescence, 96 h
# How it was run: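 PEO1, PEO4 and PEO1/OlaR ovarian cancer cells, 600 per well, exposed 96 h at 37C to a dilution series. Viability read by CellTiter-Glo luminescence, normalized to DMSO and empty wells; activity summarized as Z-AUC.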
# [2] = qHTS for identification of novel therapeutic agents for treatment of microphthalmiaassociated transcription factor (MiT) renal cell carcinoma (RCC) (AID 1963991); conditions: CellTiter-Glo, 48 h; for z-score: stronger effect = lower value
# How it was run: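 Curves over 11 concentrations were fitted to CellTiter-Glo luminescence, scaled between empty wells (0%) and DMSO (100%) viability. Cells were UOK109, UOK124 and UOK145 TFE3-fusion RCC lines at 500/well, exposed 48 hours at 37 C.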
# [3] = measured here: PEO1 parental viability
# [4] = TFE3-RCC UOK109 viability, measured here: UOK109 Z-AUC
# [5] = TFE3-RCC viability, measured here: UOK124 Z-AUC
# [6] = TFE3-RCC viability, measured here: UOK124 cell viability
# [7] = TFE3-RCC viability, measured here: UOK145 Z-AUC
# [8] = TFE3-RCC viability, measured here: UOK145 cell viability
# Tags give direction and shape of the fitted curve.
SMILES,"AC50 [1, 3]",AC50 ([1]; measured here: PEO4 viability),"z-score [2, 4]","z-score [2, 5]","AC50 [2, 6]","z-score [2, 7]","AC50 [2, 8]"
NS(=O)(=O)c1cccc2c1C(=O)c1cccc(O)c1C2=O,"2.75 µM [falling, full curve]","0.977 µM [falling, full curve]",-0.738,-2.15,"0.743 µM [falling, full curve]",-1.32,"1.32 µM [falling, full curve]"
Cn1cncc1[C@@](N)(c1ccc(Cl)cc1)c1ccc2c(c1)c(-c1cccc(Cl)c1)cc(=O)n2C,"15.5 µM [falling, single point]","12.3 µM [falling, partial curve]",-0.401,-0.828,"18.7 µM [falling, partial curve]",-0.189,"23.5 µM [falling, partial curve]"
C#Cc1cccc(Nc2ncnc3cc(OC)c(OCCCCCCC(=O)NO)cc23)c1,"1.1 µM [falling, full curve]","1.1 µM [falling, full curve]",-1.73,-1.86,"0.0126 µM [falling, partial curve]",-0.176,"14.8 µM [falling, partial curve]"
Cn1cc(-c2[nH]c3cc(NC(=O)[C@H](N)C4CCCCC4)cc4c3c2C=NNC4=O)cn1,"1.23 µM [falling, full curve]","1.23 µM [falling, full curve]",-0.119,-0.638,"4.69 µM [falling, full curve]",-0.543,"5.9 µM [falling, full curve]"
Cc1ncc(-c2ccnc(Nc3ccc(S(C)(=O)=O)cc3)n2)n1C(C)C,"1.55 µM [falling, full curve]","1.1 µM [falling, full curve]",-0.531,0.286,"3.72 µM [falling, full curve]",-0.228,"2.35 µM [falling, full curve]"
COc1cc(CCc2cc(NC(=O)c3ccc(N4C[C@@H](C)N[C@@H](C)C4)cc3)n[nH]2)cc(OC)c1,"13.8 µM [falling, single point]","19.5 µM [falling, partial curve]",0.463,-0.081,"16.6 µM [falling, partial curve]",0.393,"26.4 µM [falling, partial curve]"
Cc1cc(N2CCOCC2)cc2[nH]c(-c3c(NC[C@@H](O)c4cccc(Cl)c4)cc[nH]c3=O)nc12,"6.92 µM [falling, partial curve]","6.16 µM [falling, partial curve]",-1.39,-1.01,"18.7 µM [falling, partial curve]",-0.487,"14.8 µM [falling, partial curve]"
Cc1[nH]nc2ccc(-c3cncc(OC[C@@H](N)Cc4ccccc4)c3)cc12,"0.776 µM [falling, full curve]","0.871 µM [falling, full curve]",-0.149,0.45,"3.32 µM [falling, full curve]",-0.342,"2.35 µM [falling, full curve]"
CN(C)c1ccc(C(=O)NCCCCCCC(=O)NO)cc1,"3.47 µM [falling, full curve]","4.36 µM [falling, partial curve]",-0.955,-1.97,"2.64 µM [falling, full curve]",-0.354,"7.43 µM [falling, partial curve]"
CC(C)(N)c1ccc(-c2nc3ccccc3nc2-c2ccccc2)cc1,"15.5 µM [falling, single point]","17.4 µM [falling, single point]",-0.731,-1.21,"29.6 µM [falling, partial curve]",-0.04,"18.7 µM [falling, partial curve]"
CC[C@@H]([C@H](C)O)n1ncn(-c2ccc(N3CCN(c4ccc(OCC5CO[C@@](Cn6cncn6)(c6ccc(F)cc6F)C5)cc4)CC3)cc2)c1=O (some centres undefined),"4.36 µM [falling, partial curve]","21.9 µM [falling, single point]",0.0483,-0.0344,"14.8 µM [falling, partial curve]",0.017,"20.9 µM [falling, partial curve]"
C=CC(=O)Nc1cccc(Oc2nc(Nc3ccc(N4CCN(C)CC4)cc3OC)ncc2Cl)c1,"19.5 µM [falling, partial curve]","24.5 µM [falling, single point]",-2.42,-0.743,"20.9 µM [falling, partial curve]",-2.92,"8.33 µM [falling, partial curve]"
